# Results: PubChem BioAssay AID1347073 (National Center for Advancing Translational Sciences (NCATS), 2019)
# In all, about 45,000 compounds went through this assay and about 200 (0.44%) were called active. The shares of active, inactive and inconclusive entries below differ from those in the screen. Calls follow the shape of the dose curve; as a rule, active = well fitted activation curve with a large enough effect; inconclusive = small, poorly fitted or top-dose-only effect; inactive = no such curve, though single readings can be large or run the other way. Potencies of inconclusive entries are doubtful fits and often do not repeat.
# Assay: qHTS of TDP-43 Inhibitors: NCGC Sytravon Library Screen; also: nearly all actives have a fitted effect of over 55% in size; as to growth rescue (activation): 0% is about no effect
# Conditions: yeast TDP-43 toxicity rescue, BacTiter-Glo growth, 24 h; growth rescue (activation): at 46.1 µM (top of the series)
# How it was run: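 TDP-43-expressing yeast, pregrown in raffinose, seeded at OD600 0.02 in galactose medium with compound for 24 hr at 30 deg C. Growth read by BacTiter-Glo luminescence, so rescue of toxicity appears as activation.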
# Potency is read from the fitted curve at half-maximal effect; tags tell the direction and shape of the fitted curve.
Compound,Potency,growth rescue (activation)
Cc1ncc(S(=O)(=O)c2ccccc2)c(-c2ccc(Cl)cc2Cl)n1,"inconclusive: 35.5 µM [activator, single point]",–
CCn1c(SC)nnc1-c1sc2cc(Cl)ccc2c1Cl,"inconclusive: 15.8 µM [activator, partial curve, poor fit]",–
O=C(CNC(=O)c1ccc(Cl)cc1Cl)Nc1ccc(F)cc1,"inconclusive: 25.1 µM [activator, single point]",–
O=C(NCc1ccccc1Cl)c1ccc(-c2ccccc2)cc1,"inconclusive: 17.8 µM [activator, single point]",–
O=C1S/C(=C\C=C\c2ccco2)C(=O)N1c1ccc(O)cc1,"inconclusive: 22.4 µM [activator, partial curve, poor fit]",–
CC(=O)c1ccc2c(c1)N(Cc1ccccc1Cl)C(=O)C(C)S2 (stereo not given),"inconclusive: 14.1 µM [activator, partial curve, poor fit]",–
Cn1c(CCNC(=O)c2ccccc2F)nnc1SCC(=O)Nc1ccccc1F,inactive,–
COc1ccccc1-c1cc(C(=O)NC2CCCC2)no1,"inconclusive: 25.1 µM [activator, partial curve, poor fit]",–
COc1ccc(-n2nc(C(=O)NCC(=O)N3CCCC(C)C3)c3ccccc3c2=O)cc1Cl (stereo not given),"inconclusive: 12.6 µM [activator, partial curve, poor fit]",–
CC(=O)N1CCC(C(=O)OCc2ccc(Cl)cc2)(c2ccccc2)CC1,"inconclusive: 20 µM [activator, single point]",–
Cc1cccc(CSCCNC(=O)CN(c2ccccc2)S(=O)(=O)N(C)C)c1,inactive,–
S=C(Nc1ccc(Br)cc1)NC1CCCC1,"inconclusive: 20 µM [activator, partial curve, poor fit]",–
CCCN(CC1COc2ccccc2O1)C(=S)Nc1ccc(C)cc1 (stereo not given),"inconclusive: 11.2 µM [activator, partial curve, poor fit]",–
O=C(/C=C/c1cccc(C(F)(F)F)c1)OCC(=O)N1CCN(c2ccccc2)CC1,"inconclusive: 22.4 µM [activator, partial curve, poor fit]",–
C=CCn1c(COc2cccc(C)c2)nnc1SCC(=O)c1c[nH]c2c(CC)cccc12,inactive,–
O=C(NCc1ccccc1Cl)c1cnc2ccccc2n1,"inconclusive: 35.5 µM [activator, partial curve, poor fit]",–
Cc1ccc(N2C(=O)CN=C2Nc2nc(C)cc(C)n2)cc1,inactive,–
CC(C)Nc1nc(Nc2ccc(C(N)=O)cc2)c2sccc2n1,inactive,–
Cc1cc(Br)cc(Cl)c1OC(=O)c1ccncc1,"inconclusive: 31.6 µM [activator, single point]",–
COc1ccccc1CCNC(=O)c1nc(-c2cccs2)no1,"inconclusive: 17.8 µM [activator, single point]",–
C#Cc1cccc(Nc2nc(NCc3ccccc3OC)nc3ccsc23)c1,inactive,–
CN(C1CCCCC1)S(=O)(=O)c1ccc2[nH]c(=O)oc2c1,–,inconclusive: -24% [activator]
Cc1c(Cl)cccc1NC(=O)CNc1cccc(C(F)(F)F)c1,"inconclusive: 15.8 µM [activator, single point]",–

Compound,Potency,growth rescue (activation)
CCOc1ccc(NS(=O)(=O)c2cccc(C(=O)NCC3(N(C)C)CCCCC3)c2)cc1,inactive,–
CNCCOc1ccc(Cl)c(Cl)c1,–,inconclusive: -32.2% [activator]
CC(C)(CNC(=O)C1c2ccccc2-c2ccccc21)N1CCOCC1,inactive,–
CC(CN1CCOCC1)OC(=O)c1ccc(Br)cc1 (stereo not given),active: 15.8 µM,–
Cc1nnc(NC(=O)c2ccc(S(=O)(=O)N3CC(C)CC(C)C3)cc2)o1 (stereo not given),"inconclusive: 17.8 µM [activator, single point]",–
COc1cccc(NC(=O)N2CCc3nc(NCc4cccc(Oc5ccccc5)c4)ncc3C2)c1,–,inconclusive: 36.2% [activator]
NS(=O)(=O)c1ccc(CCNc2ncnc3c2c(-c2ccccc2)cn3-c2ccc(F)cc2)cc1,"inconclusive: 17.8 µM [activator, single point]",–
O=C(/C=C/c1ccc(OCc2c(F)cccc2Cl)cc1)N1CCOCC1,"inconclusive: 11.2 µM [activator, partial curve, poor fit]",–
Cc1ccsc1C(=O)OCC(=O)N1CCN(c2ccccc2)CC1,"inconclusive: 10 µM [activator, partial curve, poor fit]",–
CC(Cc1cccs1)NC(=S)Nc1ccc(Cl)cc1 (stereo not given),"inconclusive: 12.6 µM [activator, single point]",–
O=C(COC(=O)c1ccccc1Br)NC1CCCC1,inactive,–
COc1ccc(C2CCCN2C(=S)Nc2ccc(C)cc2Cl)cc1OC (stereo not given),"inconclusive: 35.5 µM [activator, single point]",–
COCCNC(=O)C1(C)CCCN(C(=O)c2c(-c3ccccc3)noc2C)C1 (stereo not given),inactive,–
CCc1ccc(/C=N\n2cnnc2)cc1,inactive,–
COc1cc(CNc2ccc(O)cc2)cc(Br)c1OCc1ccccc1F,"inconclusive: 17.8 µM [activator, single point]",–
Cc1ccc(S(=O)(=O)NC(=O)C2(C)CCN2C(=O)C2(c3ccc(Cl)cc3)CC2)cc1 (stereo not given),"inconclusive: 25.1 µM [activator, single point]",–
COc1ccc(C(=O)NC(C)CCc2ccccc2)c(O)c1 (stereo not given),"inconclusive: 12.6 µM [activator, partial curve, poor fit]",–
CCOC(=O)/C(=C\c1ccc(Cl)cc1)c1nc2sc(C)c(C)c2c(=O)[nH]1,"inconclusive: 11.2 µM [activator, partial curve, poor fit]",–
CCOC(=O)Cc1csc(NC(=O)CSc2ccc(Br)cc2)n1,active: 12.6 µM,–
COc1ccc(-n2c(C)c(C)c3c(NCCCN(C)C)ncnc32)cc1,inactive,–
N#Cc1ccccc1NC(=O)c1ccc(-c2ccccc2Cl)o1,"inconclusive: 3.55 µM [activator, full curve]",–
Cc1ccc(C(=O)COc2ccccc2-c2ccccc2)cc1,"inconclusive: 11.2 µM [activator, single point]",–
